Measurements taken from PubChem BioAssay AID1479 (National Center for Advancing Translational Sciences (NCATS), 2009).
Hit rate of the full screen: of about 280,000 compounds, about 820 (0.29%) were called active. This list was built around the results that the source calls inconclusive (neither active nor inactive); the mix of calls is not that of the screen. Calls come from the whole dose curve; as a rule, active = well fitted curve in either direction with a large enough effect; inconclusive = small, poorly fitted or top-dose-only effect; inactive = flat fitted curve, though single readings scatter. Potencies of inconclusive entries are left out as doubtful fits.

Assay: Total Fluorescence Counterscreen for Inhibitors of the Interaction of Thyroid Hormone Receptor and Steroid Receptor Coregulator 2
Conditions: TRb/SRC2 Texas Red total fluorescence interference; series mostly up to 106 µM; fluorescence change, negative = quenching: at the top concentration
Procedure, shortened: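 Human TRb ligand-binding domain at 0.6 uM with 20 nM Texas Red SRC2 peptide in Tris buffer containing 1 uM T3 and 5% DMSO, incubated with compound 5 h at ambient temperature. Total fluorescence (555/632 nm) calculated as parallel + 2 × perpendicular.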
% is set by controls: 0 for no effect and ±100 for the full control effect; potency is the fitted concentration of half-maximal effect; tags give direction and shape of the fitted curve or compound fluorescence and quenching.

Q: Which Potency does the source give for `Cc1cccc(N(C)C(=O)c2cc3c(=O)oc4ccc(C)cc4c3s2)c1` here?
A: The Potency was inconclusive [quencher, full curve].

Q: With `O=C1c2cccc3cccc(c23)C(=O)N1OS(=O)(=O)c1ccc(Br)cc1` as the compound, how does the Potency read?
A: Its Potency is inconclusive [falling, partial curve, poor fit].

Q: With `N#Cc1ccsc1NC(=O)CN1CCN(S(=O)(=O)c2cc(Cl)ccc2Cl)CC1` as the compound, how does the Potency read?
A: The Potency was inconclusive [falling, partial curve, poor fit].

Q: Which Potency does the source give for `COC(=O)c1scc(-c2ccc(C)cc2)c1S(=O)(=O)N1CCN(c2ccccc2F)CC1` here?
A: Its Potency is inconclusive [falling, full curve, poor fit].

Q: With `O=S(=O)(NCCc1cn2ccsc2n1)c1ccc(Cl)cc1` as the compound, how does the Potency read?
A: The Potency was inconclusive [falling, partial curve, poor fit].

Q: For `COc1ccccc1NCCC(=O)OCC(=O)NC1CC1`, which Potency is on record?
A: Its Potency is active: 3.55 µM [quencher].

Q: With `Cc1ccc2c(c1)C(C)(c1ccccc1)CC(C)(C)N2C(=O)c1ccc(F)cc1` (stereo not drawn) as the compound, how does the Potency read?
A: Its Potency is inconclusive [quencher].

Q: For `Cc1ccccc1C(=O)n1nc(-c2cccnc2)nc1NCc1ccc(F)cc1`, which Potency is on record?
A: The Potency was inconclusive [quencher, partial curve].

Q: With `COc1ccc(-c2cn3c(n2)sc2cc(C(=O)Nc4cc(OC)cc(OC)c4)ccc23)cc1` as the compound, how does the Potency read?
A: The Potency was active: 0.0007 µM [quencher].

Q: For `CO[C@@H]1COC(=O)C/C=C\[C@H](C)[C@H](OC)COC(=O)[C@H]2CCCN2C(=O)C/C=C\[C@H]1C`, which fluorescence change, negative = quenching is on record?
A: Its fluorescence change, negative = quenching is inactive: 1.46% [at 11.2 µM].

Q: With `Cc1cccc(OCCN2C(=O)C(=O)c3cc(C)ccc32)c1` as the compound, how does the “fluorescence change, negative = quenching” value (“fluorescence change” for short) read?
A: Its value is inactive: -1.12%.

Q: With `O=C(CSc1nc2ccccc2[nH]1)N=Nc1c(O)[nH]c2ccccc12` as the compound, how does the “fluorescence change” value read?
A: The value was inactive: -3.07%.

Q: Which Potency does the source give for `COc1ccc(N(C)C(=O)c2cc(S(=O)(=O)N3CCc4ccccc43)cn2C)c(OC)c1` here?
A: The Potency was active: 0.0158 µM [quencher].

Q: For `Cc1ccc(CN(Cc2ccco2)c2cnc(S(C)(=O)=O)nc2C(=O)Nc2ccccc2Br)o1`, which Potency is on record?
A: Its Potency is inconclusive [falling, partial curve, poor fit].

Q: With `Cc1cccc(C(=O)OC2CCN(C)CC2)c1` as the compound, how does the “fluorescence change” value read?
A: Its value is inactive: -3.66%.

Q: For `COc1ccc(S(=O)(=O)c2nnn(-c3ccc(C)c(Cl)c3)c2C)cc1`, which Potency is on record?
A: Its Potency is inconclusive [falling, full curve, poor fit].

Q: For `O=C(COc1ccc(C(=O)c2ccccc2)cc1)NCc1ccc(F)cc1`, which Potency is on record?
A: Its Potency is inconclusive [quencher, full curve].

Q: For `CC(C)C(C(=O)O)N1C(=O)/C(=C/C=C/c2ccco2)SC1=S` (stereo not drawn), which Potency is on record?
A: The Potency was inconclusive [quencher, full curve].
